# Laboratory results as given in the supplement of paper PMC11417369.
# ± gives the standard deviation of the averaged measurements. The list shows a part of the results.
# Tested on: PfAP2-LT AP2 domain (GST-tagged)
# Experiment: gcPBM binding intensity (ln(normalized median fluorescence intensity)); higher = stronger DNA binding
# Summary of the method: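 Each value is the highest Masliner-normalised natural-log median intensity across replicate spots of either orientation of a probe. The probes were primer-extended double-stranded 36-bp intergenic genomic sequences on an Agilent 4 × 180k array, alongside negative controls, exposed for 1 h to GST-tagged P. falciparum DNA-binding domains expressed in E. coli. Bound protein was picked up with Alexa488 anti-GST antibody and scanned at 488 nm.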
row,Sequence,gcPBM binding intensity (ln)
1,TATAAATAGAGACACACACACATATAAATAAATATT [CACACA_site7854],9.68 ± 0.28
2,ATATATTTTTTGAATACACACATATTATCTGTAATA [CACACA_site4826],8.95 ± 0.36
3,CTATAATATGGTATTACACACTGTTATAAGTATGGC [CACACA_site7068],8.95 ± 0.36
4,AGAATTATTTTATGTTTGCACTTTTTTTTTCTATAA [GTGCAC_site9876],8.84 ± 0.53
5,ATTATTAACATATATATACACACGAAAAAATTATAT [CACACA_site625],8.96 ± 0.35
6,TAATGAAATATTATGTGTACTTAAAAATTATTAAAT [XGTACX_site5261],8.41 ± 0.41
7,TATTCCTAATTGACAACACACACAACAAAAAAGGGA [CACACA_site8350],9.37 ± 0.31
8,TTACACAAATAGCTGCATTTATAAAATACAATTAAA [CACACA_negctrl_site241],8.56 ± 0.41
9,TGGGCGTCATAATGAACACACAATTATATTATGACT [CACACA_site3910],8.91 ± 0.38
10,ATATATATAATAATATGTACGGAAAAAGCTTAAGCT [XGTACX_site5661],8.82 ± 0.42
11,ATATATATATATTTATGTACGAATATGTTTAATTTA [XGTACX_site3986],8.74 ± 0.35
12,TTTTGTCAATTTTAGATTTTTCAATACATGGATATT [CACACA_negctrl_site319],8.59 ± 0.55
13,AAATATATATATTTACGTACATATATACAAATAGAG [XGTACX_site6067],8.84 ± 0.39
14,TTATAAAGAACACAGACACACAAAGAAAGAACCAAT [CACACA_site4175],9.36 ± 0.43
15,CACAAATAAATACATACACACATATATACTCATATA [CACACA_site4379],9.28 ± 0.33
16,TGTCACTACAAATGAGTGCATTAAATAATTTGGAAA,8.6 ± 0.45
17,AATATTATTTATATTTGTACACAGTAATATAAAATA [XGTACX_site4884],8.48 ± 0.34
18,ATATGCAAAGAGTATAATCAAAATGTAAATAAATAA [GTGCAC_negctrl_site141],8.95 ± 0.45
19,CCATAGATATTTTATACACACATATAATATATTAAG [CACACA_site4363],8.89 ± 0.36

row,Sequence,gcPBM binding intensity (ln)
1,AATATATTCCACATGTGTACATATATATATATATAT [XGTACX_site8006],9.68 ± 0.34
2,AAAAATAAAGAAACAGGTACGCATATATTAAGATAT [XGTACX_site8097],9.06 ± 0.41
3,TTTCCTTCTACAAAAAATTTTATCAAGAGGAAGTAC [CACACA_negctrl_site926],8.29 ± 0.38
4,AATATATATCATCACACACACATACATAAATATATA [CACACA_site184],9.7 ± 0.3
5,AGTTTATTTGTAAAAAGTACATATTTAAGAAAACTT [XGTACX_site2318],8.51 ± 0.36
6,TTCTAACTCTAACAAGTGCAATATATATACATAATA,8.46 ± 0.39
7,AAATTTGGCAAACACACACACACACCCACACCCACA [CACACA_site8095],10.4 ± 0.19
8,GAAAATAAAAAAAATAAAAAAAATAAAAAAAATTAT [XGTACX_negctrl_site443],8.48 ± 0.55
9,TAAATATCTAAAGACTGTACAATTAAATATAAACAT [XGTACX_site1450],8.76 ± 0.4
10,TTTTGTAACCTATGCACGCACACAAGAAAAAAACAA [CACACA_site3776],8.89 ± 0.33
11,TATATTATATATATGTGTACATATAAATGTAACAAA [XGTACX_site5025],8.6 ± 0.47
12,ATAGAATACATATATGAACACACAGAGTTTTAAAAA [CACACA_site8879],9.01 ± 0.56
13,AATACATATAAAAGTACACACACACCCATATATATA [CACACA_site8220],9.97 ± 0.13
14,TTTTTTTTTTGATGTTGTACATATATACTATATAAT [XGTACX_site1332],8.7 ± 0.51
15,TTTTAATGATATATGAGTACACATTGTTTTTTATAA [XGTACX_site1072],8.47 ± 0.36
16,ATATAATGATGGAAAAGAAAAGAAATAAAAAAAAAA [CACACA_negctrl_site1170],8.56 ± 0.57
17,AAATAATAAAACAACACACAAATAGTTAAAATAGAA [CACACA_site5007],9.12 ± 0.52
18,TTGACATATAAGATATGTACTAATACACACACATAT [XGTACX_site1904],9.46 ± 0.42
19,ACATTCTATATATACACACATACATAATAAAGAAAG [CACACA_site2771],9.05 ± 0.4

row,Sequence,gcPBM binding intensity (ln)
1,CATATATAGATATATACACACATACATACATACATA [CACACA_site7748],9.3 ± 0.27
2,TGCATATGCATTATTTGTACATATGTAGATAATTAT [XGTACX_site6930],8.85 ± 0.35
3,AATAAAATAAATATATGTACATATATATAACCATTA [XGTACX_site5549],8.88 ± 0.44
4,AAAAATTACAAATACAAACACACAAATGTTTTTCAT [CACACA_site3551],8.8 ± 0.42
5,AGAGAAAGAAGGGAGAAAAAATAAAATAAAATAAAA [GTGCAC_negctrl_site299],8.69 ± 0.67
6,AATAAAAAAAAACTCATGCACACAATATTATGAAAA [CACACA_site664],8.94 ± 0.5
7,TATATATATATATATATTTTAAATGATATAAATGGT [TGCATGCA_negctrl_site152],8.96 ± 0.3
8,AATTAATTAAATTAATGTACACATATATTTGTATTC [XGTACX_site2341],8.78 ± 0.44
9,CCACATTAAAAAAAAACACACATATATTATATATAT [CACACA_site1155],8.89 ± 0.42
10,AATACATGAATATGTAGTACAGAAAAAAAAAATATA [XGTACX_site1945],8.95 ± 0.52
11,GTTACAGAGAATGTTGTGCACATATCAATAATATAT [GTGCAC_site9671],9.03 ± 0.4
12,AAAATGACATAATGGGGAATAGACATATACATAAAT [CACACA_negctrl_site1669],9.05 ± 0.45
13,ATAATAATAAAAATTATACATAAGTATATGCACATA [XGTACX_negctrl_site583],8.69 ± 0.37
14,TATAAACCATAATTAACACACAAAATAAGTTACATA [CACACA_site3227],8.94 ± 0.45
15,ACATATGGTATTTAAACACACAAAAAAGAAAGAAAA [CACACA_site991],8.95 ± 0.47
16,TTTTGCTTTTTTTTTCTTTTTTGTTTTATATATATT [CACACA_negctrl_site103],8.74 ± 0.45
17,AAATGGTAAGAAAATAAATAAAGTTCTACCACATAA [CACACA_negctrl_site1542],8.92 ± 0.51
18,TAGAAAGAATATAATTGTACAAATGTTGATAGATAA [XGTACX_site7259],8.8 ± 0.52
